Measured values from PubChem BioAssay AID1347428 (National Center for Advancing Translational Sciences (NCATS), 2020).
In all, about 91,000 compounds went through this assay and about 290 (0.32%) were called active. The inconclusive results got no clear call from the source; some entries with a clear call stand among them for comparison. Calls come from the whole dose curve; as a rule, active = well fitted inhibition curve with a large enough effect; inconclusive = small, poorly fitted or top-dose-only effect; inactive = no such curve, though single readings can be large or run the other way. Where the call is inconclusive, the potency comes from a doubtful curve fit.

biological target: Single-stranded DNA cytosine deaminase (Homo sapiens) (UniProt Q9GZX7); experiment: Primary qHTS assay for inhibitors of Activation Induced Cytidine Deaminase (AID): AID signal; conditions: AID deamination FRET fluorescence, UDG-coupled, 4 h; series mostly up to 115 µM; note: nearly all actives have a fitted effect of over 25% in size
Potency is the fitted concentration of half-maximal effect; tags give direction and shape of the fitted curve.

Sequence of UniProt Q9GZX7 (Q9GZX7 whole entry, looked up): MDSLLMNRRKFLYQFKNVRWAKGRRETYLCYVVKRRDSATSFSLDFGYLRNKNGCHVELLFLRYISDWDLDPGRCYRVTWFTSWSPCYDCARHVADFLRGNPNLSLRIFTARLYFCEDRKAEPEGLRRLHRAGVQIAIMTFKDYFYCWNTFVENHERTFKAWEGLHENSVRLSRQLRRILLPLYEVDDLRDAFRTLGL

Q: `CCN(CC)C(=O)c1sc2c(c1C)c(=O)n(-c1ccc(C)c(C)c1)c(=O)n2Cc1cc(=O)n2ccccc2n1` was tested. Which Potency did it give?
A: inactive

Q: Which Potency does the source give for `Cc1ccccc1CN1CCC(N(C)Cc2ccccc2)CC1` here?
A: inactive

Q: For `COc1ccc(C2c3[nH]c4ccccc4c3CCN2C(=O)CCC2CCCC2)cc1` (stereo unspecified), which Potency is on record?
A: inconclusive: 8.91 µM [inhibitor, full curve, poor fit]

Q: For `CCC(Sc1nc2c(sc3ccccc32)c(=O)n1CCc1ccc(OC)c(OC)c1)C(=O)N(CC)CC` (stereo unspecified), which Potency is on record?
A: active: 31.6 µM

Q: For `CCS(=O)(=O)c1ncc(Cl)c(C(=O)N2CCN(c3ccc(OC)cc3)CC2)n1`, which Potency is on record?
A: inconclusive: 15.8 µM [inhibitor, partial curve, poor fit]

Q: `Cc1nc(-c2ccc(S(=O)(=O)Nc3cc(Cl)ccc3C)cc2)co1` was tested. Which Potency did it give?
A: inactive

Q: `Cc1sc2ncn(CC(=O)N3CCN(c4ccccc4F)CC3)c(=O)c2c1S(=O)(=O)N1CCC(C)CC1` was tested. Which Potency did it give?
A: inconclusive: 22.4 µM [inhibitor, full curve]

Q: `Cc1cccc(OCCSc2nnc(-c3cccs3)o2)c1` was tested. Which Potency did it give?
A: inconclusive: 39.8 µM [inhibitor, single point]

Q: For `Clc1ccccc1OCCSc1nnc(-c2cccs2)o1`, which Potency is on record?
A: inconclusive: 39.8 µM [inhibitor, single point]

Q: Which Potency does the source give for `CCn1cc(CNC(=O)c2cc(-c3ccc(C)cc3)nc3ccc(Br)cc23)c(C)n1` here?
A: inconclusive: 39.8 µM [inhibitor, partial curve, poor fit]

Q: With `CCS(=O)(=O)N1CCc2cc(C(=O)NCc3ccccc3OC)ccc21` as the molecule, how does the Potency read?
A: inconclusive: 39.8 µM [inhibitor, single point]

Q: `O=S(=O)(c1ccccc1)c1nc(-c2ccccc2Cl)oc1N1CCCCCC1` was tested. Which Potency did it give?
A: inconclusive: 25.1 µM [inhibitor, full curve, poor fit]

Q: Which Potency does the source give for `CCOC(=O)c1cc(-c2ccc(OC)cc2)n(CCC(=O)NCCc2ccccc2)c1C` here?
A: inconclusive: 35.5 µM [inhibitor, partial curve, poor fit]

Q: With `CC(C)(C)c1ccc(C(=O)NNC(=S)Nc2ccccc2)cc1` as the molecule, how does the Potency read?
A: inactive

Q: `COc1ccc(NC(=O)/C=C\C(=O)N(c2ccc(C(C)C)cc2)C(C(=O)NCc2ccco2)c2ccc(C)cc2)cc1` (stereo unspecified) was tested. Which Potency did it give?
A: inconclusive: 17.8 µM [inhibitor, full curve, poor fit]

Q: With `CC(C)CNC(=O)NC(=O)CN(C)C1CCCCCC1` as the molecule, how does the Potency read?
A: inactive

Q: How did the Potency turn out when `COc1cccc(Nc2nc3cc(C)ccc3nc2NS(=O)(=O)c2ccc(Cl)cc2)c1` was run?
A: inactive

Q: Which Potency does the source give for `Fc1ccccc1CNC(=S)NCCc1ccccc1` here?
A: inactive

Q: With `Cc1cccc(-n2ccnc2SCC(=O)Nc2cccc3ccccc23)c1` as the molecule, how does the Potency read?
A: inconclusive: 50.1 µM [inhibitor, partial curve, poor fit]

Q: Which Potency does the source give for `COc1ccc(-c2nc3nc(C)cc(C)n3c2Nc2c(C)cccc2C)cc1` here?
A: inconclusive: 50.1 µM [inhibitor, partial curve, poor fit]

Q: `CSc1nc(NCCOC(C)=O)c(C#N)c(-c2ccc(C(C)(C)C)cc2)n1` was tested. Which Potency did it give?
A: inconclusive: 56.2 µM [inhibitor, partial curve, poor fit]

Q: `Cc1ccccc1-c1nc(CN2CCCC(C(=O)NCc3ccc(Cl)cc3)C2)c(C)o1` (stereo unspecified) was tested. Which Potency did it give?
A: inactive

Q: With `Cc1cc(C)cc(-n2ccnc2SCC(=O)Nc2cccc3ccccc23)c1` as the molecule, how does the Potency read?
A: inconclusive: 56.2 µM [inhibitor, partial curve, poor fit]

Q: `O=C(NC1CC1)C1CCN(Cc2nc(-c3ccccc3)no2)CC1` was tested. Which Potency did it give?
A: inactive

Q: Which Potency does the source give for `COc1ccccc1C1NC(=O)c2n[nH]c(-c3cccs3)c21` (stereo unspecified) here?
A: inactive

Q: `COC(=O)c1cc2oc(C)cc2n1Cc1ccccc1Cl` was tested. Which Potency did it give?
A: inconclusive: 20 µM [inhibitor, partial curve, poor fit]

Q: For `Cc1nc2cc(-c3ccccc3)nn2c(C)c1CCC(=O)N1CCN(c2ccc(F)cc2)CC1`, which Potency is on record?
A: inconclusive: 50.1 µM [inhibitor, partial curve, poor fit]

Q: With `CCOC(=O)Cn1c(=N)n(Cc2ccc(C(C)(C)C)cc2)c2ccccc21` as the molecule, how does the Potency read?
A: inconclusive: 35.5 µM [inhibitor, partial curve, poor fit]

Q: Which Potency does the source give for `CCCOC(=O)c1cccc(Nc2nc(CCC)cc(=O)[nH]2)c1` here?
A: inconclusive: 100 µM [inhibitor, single point]

Q: How did the Potency turn out when `COc1cccc(NCc2cccn2-c2nnc(N3CCC(C)CC3)s2)c1` was run?
A: inconclusive: 35.5 µM [inhibitor, partial curve, poor fit]

Q: With `O=C(O)CSCc1ccncc1` as the molecule, how does the Potency read?
A: inactive

Q: Which Potency does the source give for `O=Cc1cccn1-c1ccc(Cl)cc1Cl` here?
A: inactive

Q: How did the Potency turn out when `CC(C)=CCS(=O)(=O)Cc1cccc2ccccc12` was run?
A: inactive

Q: `C=C(C)Cn1c(SCc2ccccc2Cl)nc2c1c(=O)n(C)c(=O)n2C` was tested. Which Potency did it give?
A: inconclusive: 79.4 µM [inhibitor, partial curve]

Q: For `CC(C)c1ccc(NC(=O)CSC2=Nc3ccccc3C3=NC(CCC(=O)NC4CCCCC4)C(=O)N23)cc1` (stereo unspecified), which Potency is on record?
A: inconclusive: 35.5 µM [inhibitor, partial curve, poor fit]

Q: `O=C(Nc1cc(-c2ccccc2)sc1C(=O)O)c1cccc(F)c1` was tested. Which Potency did it give?
A: inconclusive: 56.2 µM [inhibitor, partial curve, poor fit]

Q: How did the Potency turn out when `Cc1ccc(Cn2cc(S(=O)(=O)c3cccc(C)c3)c(=O)c3cc(F)c(N4CCOCC4)cc32)cc1` was run?
A: inconclusive: 31.6 µM [inhibitor, partial curve, poor fit]

Q: `O=C(c1cc(F)cc(F)c1)N1CCC(CCc2ccc(O)cc2)CC1` was tested. Which Potency did it give?
A: inactive

Q: `CCC(C)n1c(=O)c2sccc2n2c(CCCC(=O)N3CCN(c4ccccc4)CC3)nnc12` (stereo unspecified) was tested. Which Potency did it give?
A: inconclusive: 79.4 µM [inhibitor, single point]

Q: With `Cc1nc2n(c(=O)c1C)CN(Cc1cccnc1)CN2c1ccc(Cl)cc1Cl` as the molecule, how does the Potency read?
A: inactive

Q: How did the Potency turn out when `CC(CNC(=O)c1cc2ccccc2o1)N1CCCC1` (stereo unspecified) was run?
A: inactive

Q: Which Potency does the source give for `Cc1ccc(CN(C(=O)c2ccc(C(C)(C)C)cc2)c2ccccn2)o1` here?
A: inconclusive: 79.4 µM [inhibitor, single point]

Q: How did the Potency turn out when `Cc1cccc(NC(=O)CCN2CCN(Cc3cccc4ccccc34)CC2)c1` was run?
A: inconclusive: 50.1 µM [inhibitor, partial curve]

Q: With `COc1ccc(N2CCN(Cc3nc4c(c(=O)[nH]c(=O)n4C)n3Cc3ccccc3C)CC2)cc1` as the molecule, how does the Potency read?
A: inconclusive: 56.2 µM [inhibitor, partial curve, poor fit]

Q: `CC(C)(C)c1ccc(C(=O)Nc2ccc(-c3nc4ccccc4o3)c(O)c2)cc1` was tested. Which Potency did it give?
A: inconclusive: 39.8 µM [inhibitor, single point]

Q: For `CCCN1Cc2cccc(C(=O)Nc3cc(Cl)ccc3C)c2C1=O`, which Potency is on record?
A: inconclusive: 25.1 µM [inhibitor, full curve]

Q: Which Potency does the source give for `Cc1ccc(C)c(NC(=O)C(CC(C)C)N2Cc3ccccc3C2=O)c1` (stereo unspecified) here?
A: inconclusive: 25.1 µM [inhibitor, full curve, poor fit]

Q: For `COc1ccc(-c2nnc(C3CCN(S(=O)(=O)c4cccc(Cl)c4)CC3)o2)cc1`, which Potency is on record?
A: inconclusive: 3.55 µM [inhibitor, full curve, poor fit]

Q: `CCOC(=O)CC(NC(=O)Cn1nnc(-c2ccccc2Cl)n1)c1ccc(OC)cc1` (stereo unspecified) was tested. Which Potency did it give?
A: inconclusive: 25.1 µM [inhibitor, single point]

Q: `O=S(=O)(c1ccc(F)cc1)N1CCC(Oc2cccc(C(F)(F)F)c2)CC1` was tested. Which Potency did it give?
A: inconclusive: 35.5 µM [inhibitor, partial curve, poor fit]

Q: How did the Potency turn out when `COc1c(Cl)cc(Cl)cc1C(=O)Nc1cccc(-c2nc3ccccc3o2)c1C` was run?
A: inconclusive: 89.1 µM [inhibitor, single point]

Q: `COc1ccccc1CN1CCC(CNC(=O)c2cnn(-c3ccccc3Cl)c2C2CCN(C(=O)OC(C)(C)C)CC2)CC1` was tested. Which Potency did it give?
A: active: 44.7 µM

Q: How did the Potency turn out when `Cc1ccc2oc(C(=O)N(C)CCOc3ccc(F)cc3)cc(=O)c2c1` was run?
A: inactive

Q: For `COc1cccc(-c2cc(C(F)(F)F)nc(NCCc3ccc(OC)c(OC)c3)n2)c1`, which Potency is on record?
A: inconclusive: 35.5 µM [inhibitor, partial curve, poor fit]

Q: How did the Potency turn out when `CCCN(CCC)C(=O)Cn1c(=O)n(-c2cccc(C)c2)c(=O)c2c1c1cc(OC)ccc1n2C` was run?
A: inconclusive: 12.6 µM [inhibitor, partial curve, poor fit]

Q: How did the Potency turn out when `CSCCCNC(=S)Nc1ccc(F)c(Cl)c1` was run?
A: inactive

Q: How did the Potency turn out when `CCc1ccc(CNC(=O)C2CCCN(c3nnc(C)c4c(C)n(-c5ccccc5)nc34)C2)cc1` (stereo unspecified) was run?
A: inconclusive: 25.1 µM [inhibitor, full curve, poor fit]

Q: With `CCCCCOc1ccc(/C=C(/C#N)c2nc3ccccc3[nH]2)cc1OC` as the molecule, how does the Potency read?
A: inactive

Q: For `Cc1ccc(C)c(S(=O)(=O)c2nnn3c2nc(N2CCN(C)CC2)c2sccc23)c1`, which Potency is on record?
A: inconclusive: 56.2 µM [inhibitor, partial curve, poor fit]

Q: `Cc1ccc(-n2ncc(C(=O)NCc3ccco3)c2C2CCN(C(=O)OC(C)(C)C)CC2)cc1C` was tested. Which Potency did it give?
A: inconclusive: 50.1 µM [inhibitor, partial curve, poor fit]

Q: With `C=CCN1C(=O)COc2ccc(NC(=O)c3cc(=O)c4ccc(C)c(C)c4o3)cc21` as the molecule, how does the Potency read?
A: inactive

Q: `CCN(CC)S(=O)(=O)c1ccc(C(=O)NCCSc2c(-c3ccccc3)[nH]c3ccccc23)cc1` was tested. Which Potency did it give?
A: inconclusive: 56.2 µM [inhibitor, partial curve, poor fit]

Q: Which Potency does the source give for `N#Cc1cccnc1NCc1cccnc1` here?
A: inactive

Q: With `CCC(C)C(=O)OC(C(=O)NC(N)=O)C(C)C` (stereo unspecified) as the molecule, how does the Potency read?
A: inactive

Q: With `OCc1cnc(SCc2ccccc2F)n1Cc1ccc(F)cc1` as the molecule, how does the Potency read?
A: inactive

Q: With `COc1cc(NC(=O)CSc2nc3nc(C)c(Cc4ccccc4Cl)c(C)n3n2)cc(OC)c1` as the molecule, how does the Potency read?
A: inconclusive: 56.2 µM [inhibitor, partial curve, poor fit]
